Measurements published in PubChem BioAssay AID1656 (Sanford-Burnham Center for Chemical Genomics, 2009).
The other results are listed elsewhere or left out. These are further read-outs of the screen, such as a control signal, another cell line or another target. No call is given for them. Compounds called inactive in the main read-out are mostly missing here.

Assay: inhibitors of hepatocyte lipid droplet formation, primary screen, imaging, high-throughput imaging, BODIPY stain (AID 1656);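 further: cells counted across two imaged fields per well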
Settings: AML12 mouse hepatocytes, oleate lipid droplets, measured here: cell count, cytotoxicity flag, at 6.5 µM
In short: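 Assay system: AML12 hepatocytes (mouse) / Also added: 100 µM oleic acid challenge / Times: overnight treatment with compound plus oleate / Detection: high-content imaging of BODIPY-stained droplets and DAPI nuclei / Evaluation: % inhibition of lipid droplet signal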

Compound	cell count
CCCOc1ccc(C2=NNC(c3cccs3)=Nc3ccc(OC)cc32)cc1	806 cells
Cc1ccc(NC2=C/C(=N\S(=O)(=O)c3cccs3)c3ccccc3C2=O)c(C)c1	142 cells
COc1ccccc1N1CCN(C(=O)COc2ccc(S(=O)(=O)NC(C)(C)C)cc2)CC1	710 cells
Cc1ccc(CN2CCc3c(OCC(=O)Nc4cc(C)ccc4C)cccc3C2=O)cc1	226 cells
O=C(CN(CC1CCCO1)S(=O)(=O)c1ccc(S(=O)(=O)NC2CC2)cc1)Nc1ccccc1 (stereo unspecified)	714 cells
OCCCNc1cc(-c2ccnc(Nc3cccc(Cl)c3)n2)ccn1	393 cells
Cc1cccc(N(Cc2cc(=O)[nH]c3ccccc23)C(=O)CCl)c1	839 cells
COc1cc(C(=O)N/N=C/c2sccc2C)cc(OC)c1OC	144 cells
CCc1cccc(NC(=O)CCCn2nc(CC)n3c(cc4occc43)c2=O)c1	686 cells
CCOc1ccc(NS(=O)(=O)c2ccc(C(=O)N3CCCCC3)cc2)cc1	827 cells
Cn1cccc1-c1cc(C(=O)N/N=C/c2ccc(F)cc2)[nH]n1	53 cells
CCCCOc1ccc(C(C)NC(=O)CCS(=O)(=O)Cc2ccc(C)cc2)cc1 (stereo unspecified)	614 cells
CCc1nnc(NC(=O)c2ccc(COc3cccc(C)c3)o2)s1	13 cells
Cc1ccc(C(C(=O)NC(C)(C)C)N(Cc2ccco2)C(=O)CCC(=O)Nc2ccccn2)cc1 (stereo unspecified)	820 cells
CCOc1ccc(C2=NNC(c3cccs3)=Nc3ccc(OC)cc32)cc1OCC	745 cells
O=C(NC1CCCc2c1cnn2-c1cc(F)cc(F)c1)c1ccccn1 (stereo unspecified)	698 cells
CCOC(=O)[C@@H]1[C@H]2COc3ccc(Br)cc3[C@@H]2N2C(=O)N(c3ccc(C(F)(F)F)cc3)C(=O)[C@@]12C	764 cells
CCOc1ccc(CCNC(=O)COC(=O)/C=C/c2ccc(OC)c(OC)c2)cc1OCC	662 cells
CCOc1ccc(CCNC(=O)c2ccc3ccccc3n2)cc1OCC	709 cells
COc1ccccc1NC(=O)N1CCC(c2nc3cc(C)c(C)cc3[nH]2)CC1	137 cells
CCOc1ccc(CCNC(=O)CN2C(=O)NC3(CCCC3)C2=O)cc1OCC	858 cells
CCOc1ccccc1NC(=O)N1CCCC1C(=O)NCc1cccs1 (stereo unspecified)	734 cells
O=C(CSc1nc(O)cc(=O)[nH]1)N1c2ccccc2Sc2ccccc21	721 cells
O=C(NCc1ccc2c(c1)OCO2)c1cc(-c2ccccn2)nc2ccccc12	742 cells
COc1ccccc1-c1nnc(Nc2nc3c(OC)cccc3s2)o1	224 cells
O=c1c(C/C=C/c2ccccc2)c(O)ccn1CCc1c[nH]c2ccccc12	644 cells

Compound	cell count
COc1cc(NC(=O)c2ccco2)c(OC)cc1NC(=O)Nc1ccccc1Cl	734 cells
Cc1cccc(Nc2ncnc3ccccc23)c1	521 cells
CCOc1ccc(CCNC(=O)Nc2ccccc2C)cc1OCC	398 cells
CN(C)S(=O)(=O)c1ccc(C(=O)NCC2CC2(Cl)Cl)cc1 (stereo unspecified)	202 cells
Cc1ccc(C)c(C(=O)N2CCN(c3ncccn3)CC2)c1	839 cells
O=C(CSCC(=O)N1CCCc2ccccc21)Nc1nc(-c2ccccc2)cs1	711 cells
Cc1cccc(C(=O)N[C@H](C(=O)Nc2nc3ccccc3[nH]2)C(C)C)c1	249 cells
COc1ccc(OC)c(NC(=O)Cc2coc3ccc4ccccc4c23)c1	719 cells
O=C(CSC1=NC2(CCCCCC2)N=C1c1ccccc1)Nc1ccc2c(c1)OCCO2	781 cells
COc1ccc(C(=O)O/N=C(\N)c2ccccn2)cc1	843 cells
CCOc1ccccc1NC(=O)c1cccc(NC(=O)C2CCCC2)c1	823 cells
Nn1c(SCC(=O)Nc2nc3ccccc3s2)nncc1=O	277 cells
O=C1CN(C(=O)Cn2ncc(Cl)c(Cl)c2=O)c2ccccc2N1	321 cells
O=Nc1c(-c2c(O)[nH]c3cc(Br)ccc23)[nH]c2ccccc12	822 cells
CCOC(=O)C(NC(=O)c1cccc(Cl)c1)(OCc1ccccc1)C(F)(F)F (stereo unspecified)	655 cells
COc1ccc(C)cc1S(=O)(=O)N(CC(=O)O)c1ccc(C)cc1	846 cells
O=[N+]([O-])c1cc(Cl)ccc1NCCNc1ncc(C(F)(F)F)cc1Cl	710 cells
COc1cc(/C=N/NC(=O)c2ccc3ccccc3c2)ccc1Oc1ccc([N+](=O)[O-])cn1	640 cells
CCOC(=O)c1ccc(S(=O)(=O)NCC(c2ccc(N(C)C)cc2)c2c[nH]c3ccccc23)cc1 (stereo unspecified)	605 cells
O=C(Nc1nc(-c2ccc(Cl)cc2Cl)cs1)C1CCCO1 (stereo unspecified)	631 cells
CC1CC(C)CN(C(=O)c2ccc3c(c2NCCO)C(=O)c2ccccc2C3=O)C1 (stereo unspecified)	737 cells
O=[N+]([O-])c1ccccc1N/N=C\c1ccccc1Cl	669 cells
COc1cccc(-c2cn(-c3cccc(C(F)(F)F)c3)c(=S)[nH]2)c1	709 cells
CCSC(=O)N(CC)CC(=O)Nc1c(CC)cccc1CC	668 cells
Cc1sc(NC(=S)NC(=O)CCc2ccccc2)c(C(N)=O)c1C	214 cells
